Source: the supplement of paper PMC3334620
In all, about 33,000 sequences were measured (“E-score (-0.5 to 0.5)”: median about -0.054, highest 2% from about 0.39 on). This is one part of the list.

target: Ylr278c (UniProt Q05854); test: PBM E-score (8-mer binding enrichment) (E-score (-0.5 to 0.5)); higher = stronger / more preferred TF binding; most listed sequences are background and not binding sites; conditions: protein concentration: 200 nM; construct: GST-DNA-binding domain
Outline: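 Yeast transcription factors, full-length or as DNA-binding domains, were expressed with a GST tag using PURExpress in vitro transcription/translation. At about 100-200 nM they were applied to universal all-10-mer Agilent arrays, double-stranded by primer extension on fresh or once-stripped slides. Fluorescent anti-GST detected bound protein, and masliner normalised the scans. E-scores for ungapped eight-base words, pooled with reverse complements, came from the Universal PBM Analysis Suite.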

Row | Sequence | PBM E-score
1 | AGCAGTTA | -0.0394
2 | CTTCTCTA | -0.154
3 | AATACCTC | -0.0696
4 | CATAGTCC | 0.0938
5 | AGAACCAT | -0.132
6 | GATCTGCA | 0.0556
7 | TAATTTAA | 0.0165
8 | ACGCAAGC | -0.104
9 | TCTTCTAA | -0.0979
10 | ATGATCAC | -0.0937
11 | AACATATT | 0.00185
12 | GGTCATTA | -0.14
13 | CACCGTGA | 0.0623
14 | ACGCCGCT | 0.224
15 | ACCCGCAG | 0.189
16 | AAACCTAC | -0.102
17 | CCCATGGA | -0.0689
18 | CATTGAAA | -0.0316
19 | GCCGCTAA | 0.254
20 | AGCTGTAC | 0.0264
21 | ATTCATGG | -0.123
22 | ACCTGCAA | -0.216
23 | CAATTCTA | -0.262
24 | CGCCAAGA | -0.119
25 | ATACATGA | -0.234

Row | Sequence | PBM E-score
26 | AAGTTCTA | -0.0869
27 | CGACCTTA | 0.0776
28 | AATAGGTA | -0.174
29 | AAAACCAT | -0.0695
30 | AGATGTGC | 0.0163
31 | TTATTGAA | -0.175
32 | CGGTGGCA | -0.0334
33 | GCACCACA | -0.162
34 | TAACGAGA | -0.152
35 | AGCACCAG | -0.179
36 | CCGCCTCC | 0.283
37 | ACGCCAGG | 0.0083
38 | AACTTACT | -0.115
39 | GGAATGCC | 0.239
40 | TCATCTCA | 0.00661
41 | CCGATGTC | 0.26
42 | CAGCTAAC | -0.315
43 | ACACTGGG | -0.103
44 | ATATCTTA | -0.0308
45 | ACCTAGGA | -0.0515
46 | GCCGGCAA | 0.391
47 | AAAGGGAG | -0.264
48 | CTATTGTA | 0.0395
49 | CGCTTGTA | 0.102
50 | GAGTCACC | -0.0665

Row | Sequence | PBM E-score
51 | ATAATTTA | 0.109
52 | ACGTCCAG | -0.183
53 | AGAAGACT | -0.252
54 | CATTTGCG | 0.181
55 | AGTGCGAA | 0.0477
56 | CTAGCCAA | -0.0745
57 | AATACTCT | -0.0506
58 | ATCCCTCA | -0.0958
59 | TACGTTAA | -0.189
60 | AGAATCTC | -0.0318
61 | CGTACCCA | -0.142
62 | GCTCATTA | -0.0644
63 | ATTACGGC | 0.133
64 | GTTGGAAA | -0.0213
65 | ATAGGAAC | -0.105
66 | GGTATACA | 0.0107
67 | CCGGCCCG | 0.384
68 | AAACAGAG | -0.22
69 | ATACCTTG | -0.236
70 | AGGCATAT | -0.203
71 | GGGTTCCA | -0.032
72 | ACTGCAGG | -0.197
73 | GAGCCCTC | -0.0813
74 | GTGCTATA | -0.148
75 | CTTCAAGC | -0.283

Row | Sequence | PBM E-score
76 | CAGAGTTA | -0.125
77 | CGACCGTA | 0.00777
78 | ACGATTGA | -0.0541
79 | CCACCCGA | 0.0128
80 | ATAAGCCC | -0.0246
81 | GGATACGA | -0.164
82 | ATGATAAA | 0.0721
83 | CCCCAAAA | -0.0117
84 | ATATACGG | 0.136
85 | CATCTAGG | -0.159
86 | CTTCGTAA | -0.187
87 | CCTAATAA | -0.175
88 | CCTCAGGA | -0.18
89 | AAAACCCA | 0.0359
90 | GCTCGCAA | -0.18
91 | ACTGGGTG | -0.205
92 | ACTCTTTC | -0.0234
93 | ATCTAGAA | -0.162
94 | CCTTCTGA | -0.269
95 | ACTCGATG | -0.229
96 | CAGGCCTG | 0.156
97 | CGCAGGGA | -0.0224
98 | AGTGTAGA | -0.317
99 | TACCCCTA | -0.125
100 | ATATCAAA | 0.0466

Row | Sequence | PBM E-score
101 | TAGATCTA | -0.231
102 | AGCCGTTC | -0.0289
103 | CGCAAGCG | -0.177
104 | GGTCGGAC | 0.355
105 | CTGCATTC | -0.063
106 | CAACACAC | -0.139
107 | AAGTCGTC | -0.134
108 | GACAGAGC | -0.112
109 | AACTGGGA | 0.0332
110 | GCTACCCA | -0.196
111 | AAAAAGGG | 0.0153
112 | AGGGAAAA | -0.0563
113 | AGAGGGTC | -0.193
114 | ACTTACCG | 0.256
115 | CACCTGTA | -0.167
116 | GGAGGCAC | 0.0398
117 | ATACAAAG | 0.0981
118 | ACACAACG | 0.0348
119 | ACTAGACC | 0.0274
120 | AACTCGCC | 0.0959
121 | ATCGGTGC | 0.154
122 | AATCATTC | -0.0149
123 | GCACACGA | -0.138
124 | CGAGGGCA | -0.0958
125 | ATCGCTAA | -0.0953

Row | Sequence | PBM E-score
126 | GAATAGAA | 0.0463
127 | AGACCGAA | 0.169
128 | CTGCTAAG | -0.166
129 | ACGCATGG | -0.102
130 | GATATCGC | 0.0418
131 | ACGTACGG | 0.0794
132 | GTGGGTCA | -0.256
133 | AAGGCAGT | -0.169
134 | AAGGCATA | -0.176
135 | AAGCCGTA | 0.0173
136 | GTCTCCTA | -0.166
137 | CTGAGGCC | 0.115
138 | TGCTAGAA | -0.153
139 | ACAAAGAA | -0.00298
140 | GAATAAGC | -0.0831
141 | GATCGGAA | 0.408
142 | ATTAACTG | -0.0682
143 | GATAATGC | -0.0424
144 | CGTGACGC | -0.0619
145 | CAAACCCC | 0.217
146 | AATCAGCT | -0.182
147 | AACAGCGT | 0.00076
148 | CGAATAAA | 0.142
149 | CGAGGCAA | -0.0308
150 | TCACTCGA | -0.233

Row | Sequence | PBM E-score
151 | AGGCACAG | -0.228
152 | ATCGGTAA | 0.2
153 | AGCCTTGA | -0.153
154 | AGTTGCTA | 0.0917
155 | CAGACACA | -0.118
156 | CTAGGGTC | -0.308
157 | CACGGGCG | 0.225
158 | GCTGGCCA | -0.0154
159 | CCTACTTA | -0.163
160 | ACAGACAA | 0.105
161 | AGACGGGC | 0.089
162 | AAGTCTCT | -0.303
163 | ATCTACAG | -0.0146
164 | CAATGTGA | -0.225
165 | GAGCTCAC | -0.0998
166 | ACGGATTC | 0.246
167 | TATGCGGA | 0.358
168 | CGCACGCA | 0.0589
169 | CAGGGACA | -0.0712
170 | GTATTTCA | -0.175
171 | AGCTCGGA | 0.322
172 | CACCCCAC | -0.0134
